Data reported in PMC4336329 (PLoS ONE, 2015).
Out of some 310,000 compounds screened, about 14,000 (4.5%) showed an effect of 50% or more. The effect is printed as a negative number. This is one part of the list.

What follows are compounds tested against human ether-à-go-go-related gene (hERG) potassium channel (human, UniProt Q12809) (assay: primary screen, population patch clamp on CHO cells stably expressing hERG).
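Also: peak tail current of the secondary pulse compared with the same well before compound.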

Sequence of human ether-à-go-go-related gene (hERG) potassium channel (Q12809 whole entry, looked up): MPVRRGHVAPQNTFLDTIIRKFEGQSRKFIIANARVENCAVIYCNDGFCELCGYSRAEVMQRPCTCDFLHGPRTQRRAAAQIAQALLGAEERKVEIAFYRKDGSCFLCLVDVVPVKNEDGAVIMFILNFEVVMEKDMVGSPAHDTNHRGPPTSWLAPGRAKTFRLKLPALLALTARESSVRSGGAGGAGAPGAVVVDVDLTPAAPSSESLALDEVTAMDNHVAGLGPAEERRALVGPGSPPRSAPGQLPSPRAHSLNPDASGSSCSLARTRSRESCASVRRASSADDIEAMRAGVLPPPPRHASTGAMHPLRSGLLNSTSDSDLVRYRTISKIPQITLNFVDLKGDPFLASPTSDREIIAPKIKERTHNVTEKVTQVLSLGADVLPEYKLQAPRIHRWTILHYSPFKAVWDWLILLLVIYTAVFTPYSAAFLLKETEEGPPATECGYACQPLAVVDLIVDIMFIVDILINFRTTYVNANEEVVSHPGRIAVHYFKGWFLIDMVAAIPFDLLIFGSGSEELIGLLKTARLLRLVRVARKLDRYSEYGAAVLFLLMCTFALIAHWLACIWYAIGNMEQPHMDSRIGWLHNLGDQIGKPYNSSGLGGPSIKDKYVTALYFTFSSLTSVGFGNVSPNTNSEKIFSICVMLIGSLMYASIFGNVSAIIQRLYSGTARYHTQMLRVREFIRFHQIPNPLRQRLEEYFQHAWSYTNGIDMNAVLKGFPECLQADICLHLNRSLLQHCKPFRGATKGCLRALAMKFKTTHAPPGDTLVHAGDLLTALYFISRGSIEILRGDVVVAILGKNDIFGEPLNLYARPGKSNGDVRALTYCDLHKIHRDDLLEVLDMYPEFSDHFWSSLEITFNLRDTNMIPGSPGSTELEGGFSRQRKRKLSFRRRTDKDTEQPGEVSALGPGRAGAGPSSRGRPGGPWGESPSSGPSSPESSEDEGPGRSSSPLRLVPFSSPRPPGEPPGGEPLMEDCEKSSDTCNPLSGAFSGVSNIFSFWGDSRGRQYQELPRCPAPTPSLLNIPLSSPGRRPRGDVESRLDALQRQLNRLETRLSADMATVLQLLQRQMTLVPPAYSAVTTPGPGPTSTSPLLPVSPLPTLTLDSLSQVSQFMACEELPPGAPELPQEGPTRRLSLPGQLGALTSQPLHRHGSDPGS

Row | SMILES | hERG current change (%, negative = inhibition) at 10uM [%]
1 | CCOC(=O)CSc1nc2ccccc2n2cnnc12 | -1.76
2 | Cc1ccc(NC(=O)C2C3CCC(O3)C2C(=O)O)cc1C (stereo not shown) | 2.33
3 | Cc1ccc(C)c(NC(=O)CSc2cccc3cccnc23)c1 | 5.67
4 | CN(C)CCCNCC(=O)Nc1ccc(Cl)cc1C(=O)c1ccccc1.O=C(O)C(=O)O | -69
5 | Cn1c(=O)c2c(nc(OCC3COC(C)(C)O3)n2Cc2ccccc2F)n(C)c1=O (stereo not shown) | -5.39
6 | CC(C)CNS(=O)(=O)c1ccc(CCC(=O)NCc2ccco2)cc1 | -1.29
7 | CCCn1nc(C(=O)OCC(=O)c2ccccc2)c2ccccc2c1=O | 0.569
8 | O=C(Oc1nsnc1N1CCOCC1)N1CCCCC1 | 7.96
9 | CC(C)/C=N/NC(=O)c1cccc(N2CCCC2=O)c1 | -1.8
10 | COC(=O)C(CCSC)NS(=O)(=O)c1ccc(Cl)cc1 (stereo not shown) | 4.36
11 | Cl.NCCc1nnc(SCc2ccc(F)cc2)o1 | -0.73
12 | C=CCN(C(=O)Cn1nnc2ccccc21)C(C(=O)NCCOC)c1ccc(OC)cc1OC (stereo not shown) | 4.46
13 | COc1ccc(COC(=O)c2cc(S(=O)(=O)N3CCCCC3)ccc2N2CCOCC2)cc1 | -2.9
14 | C/C(Cc1ccccc1)=N\NC(=O)CCCCCC(=O)N/N=C(\C)Cc1ccccc1 | 1.8
15 | O=C1c2ccccc2C(=O)N1c1ccc(S(=O)(=O)N2CCCCC2)cc1 | 15.4
16 | COC(=O)c1cc(OC)c(OC)cc1NC(=O)CSc1ccccc1 | -18.3
17 | CCN(Cc1ccccc1)C(=O)CSc1nncn1C | 16.5
18 | Cc1nc(NC(=O)c2ccco2)sc1C(=O)Nc1ccc(Br)cc1 | -0.952
19 | O=S(=O)(c1cccs1)N1CCC(CO)(Cc2ccc(Cl)cc2)CC1 | -7.74
20 | COC(=O)c1ccc2nc(C)cc(Nc3ccc(N(C)C)cc3)c2c1.Cl | -67.1
21 | N#Cc1c(-c2ccc(Cl)cc2)cc(-c2cccs2)nc1SCC(=O)O | 29.7
22 | CC1CCc2sc(C(=O)NN=C3CCC(c4ccccc4)CC3)cc2C1 (stereo not shown) | 10.6
23 | COc1ccccc1-c1noc(Cn2cc(S(=O)(=O)N3CCCC3)ccc2=O)n1 | -3.72
24 | O=C(c1cccc(Cl)c1)c1nn(-c2ccccc2)c(=O)cc1C(F)(F)F | 7.57
25 | Cc1ccc(NC(=O)NC2CCCN2S(=O)(=O)c2ccc(Cl)cc2)cc1 (stereo not shown) | -16.4
26 | COCCn1c(SCc2ccc(Cl)cc2)nc2c1c(=O)[nH]c(=O)n2C | -16.5
27 | CCC(C)Sc1ccc([C@H]2N[C@@](CC(C)C)(C(=O)OC)[C@H]3C(=O)N(CC)C(=O)[C@@H]23)cc1.O=C(O)C(F)(F)F (stereo partly shown) | -13.9
28 | CC(C)NC(=O)N(O)C1N(C(C)C)C(=O)N(Cc2ccc3c(c2)OCO3)C1(C)C (stereo not shown) | 12.2

Row | SMILES | hERG current change (%, negative = inhibition) at 10uM [%]
29 | Cn1c2ccccc2c(=O)c2c(=O)n(C3CCCCC3)c(-c3cccs3)nc21 | -66.1
30 | O=C(NNC(=O)c1ccccc1O)c1ccc(-c2ccc([N+](=O)[O-])cc2)o1 | -7
31 | Cc1ccc(S(=O)(=O)NC(=NC(Cc2ccccc2)C(=O)O)c2ccccc2)cc1 (stereo not shown) | 7.98
32 | O=C(Nc1ccc(N2CCOCC2)cc1)c1ccc2nc(-c3ccco3)c(-c3ccco3)nc2c1 | -0.891
33 | CC1(C)Cc2ccccc2C(=O)N1 | 12.6
34 | Cc1cc(NC(=O)CCCn2ccc([N+](=O)[O-])n2)n(Cc2ccc(F)cc2)n1 | 4.85
35 | O=C(COc1ccccc1[N+](=O)[O-])N(Cc1ccco1)C1CCS(=O)(=O)C1 (stereo not shown) | -6.3
36 | CC(=O)c1cccc(NC(=O)C2CCN(C(=O)c3ccccc3Cl)CC2)c1 | -0.359
37 | NC(=O)C1CCN(C(=O)c2ccc(Cl)c(S(=O)(=O)NCc3ccco3)c2)CC1 | 7.09
38 | Cc1ccc2nc(C)cc(N3CCOCC3)c2c1.Cl | -23.8
39 | CC1(C)CC(=O)CC2(C1)NCC(c1ccccc1)c1c2[nH]c2ccccc12.Cl (stereo not shown) | -85.8
40 | Cc1nc(N2CCOCC2)sc1C=O | 4.26
41 | O=C(O)CCc1nc2ccccc2n(CCc2ccccc2)c1=O | 4.04
42 | CC1CCCC(C)N1S(=O)(=O)c1ccc(NC(=O)CCn2cnc3ccccc3c2=O)cc1 (stereo not shown) | 7.94
43 | Cc1ccc(-c2ccc(=O)n(CC(=O)NCCCN3CCCCC3)n2)cc1 | -9.02
44 | Cc1ccc(C)c(NC(=O)C(=O)NCCCN2CCOCC2)c1 | -1.45
45 | COC(=O)c1[nH]c2c(c1C)C(=O)CC(c1cccs1)C2 (stereo not shown) | 8.52
46 | Cc1cccc(C)c1NC(=S)N1CCCCCC1 | 11.7
47 | CC1CCCC(C)N1C(=O)COC(=O)c1cccc(S(=O)(=O)N(C)c2ccccc2)c1 (stereo not shown) | -27.2
48 | COc1ccc2oc(=O)cc(-c3cc4ccccc4o3)c2c1 | 0.523
49 | COc1nsnc1NS(=O)(=O)c1ccc(NC(=S)NC(=O)c2ccncc2)cc1 | 7.08
50 | COc1ccc(C2c3c(ncn(CCCO)c3=N)Oc3ccc4ccccc4c32)cc1 (stereo not shown) | -33.9
51 | COc1ccc(-n2c(-c3ccc(Br)cc3)c[n+]3c2CCC3)cc1.[Br-] | -56
52 | Nc1cnn(-c2ccccc2)c(=O)c1Cl | 13.8
53 | CC1(C)c2[nH]c3ccccc3c2C[C@@H]2C(=O)N(Cc3ccc(F)cc3)C(=O)N21 | -0.197
54 | Cc1cc(C)cc(NC(=O)C2CCCN(S(=O)(=O)c3cnc[nH]3)C2)c1 (stereo not shown) | -3.46
55 | O=C([O-])/C=C/C(O)c1ccc(Cl)cc1.[Na+] (stereo not shown) | 18.7
